Data published in PubChem BioAssay AID1347071 (National Center for Advancing Translational Sciences (NCATS), 2019).
Out of some 410,000 compounds screened, about 260 (0.063%) were called active. The shares of active, inactive and inconclusive entries below differ from those in the screen. Calls follow the shape of the dose curve; as a rule, active = well fitted activation curve with a large enough effect; inconclusive = small, poorly fitted or top-dose-only effect; inactive = no such curve, though single readings can be large or run the other way. No potency is given beside an inconclusive call; the fits are too rough.

Test: qHTS for compounds that reverse cellular toxicity of Amyloid beta (A-beta) peptide in yeast: Primary Screen; also: nearly all actives have a fitted effect of over 55% in size
Details: yeast expressing A-beta42, growth rescue, OD600, 48 h; growth rescue: at 46.1 µM (top of the series), 0% DMSO, 100% iron-clioquinol control
Procedure, shortened: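 Yeast A-beta toxicity model in growth medium with pinned compounds, 48 h at 30 C; growth read as absorbance at 600 nm. Normalized to FeCl3/clioquinol equimolar mix (positive) and DMSO (negative).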
Potency is read from the fitted curve at half-maximal effect; tags tell the direction and shape of the fitted curve.

Structure (SMILES) | Potency | growth rescue
Brc1ccc2c(c1)CNc1c(ncnc1N1CCOCC1)O2 | inconclusive [activator, partial curve, poor fit] | –
COc1ccc(S(=O)(=O)c2c(O)cc(C)c(NS(=O)(=O)c3ccccc3)c2C)cc1 | inconclusive [activator, single point] | –
Cc1cccc(C)c1NC(=O)C1C(c2ccc3c(c2)OCO3)=Nc2ccccc2N1C(=O)c1ccccc1 (stereo not drawn) | – | inactive: -3.6%
CCOc1ccc(CCN2C(=S)N([C@@H](CC(C)C)CN3CCC[C@@H]3CN3C(=S)NC[C@@H]3CC(C)C)C[C@@H]2CC(C)C)cc1 | inconclusive [activator, single point] | –
S=c1[nH]nc(-c2ccc(Br)cc2)n1-c1ccc(Br)cc1 | inconclusive [activator, single point] | –
CSCCCNC(=S)N1CCc2ccccc2C1 | inconclusive [activator, single point] | –
CC(C)C(=O)Nc1ccc(C(=O)N/N=C/C2CC3C=CC2C3)cc1 (stereo not drawn) | – | inactive: -17.1%
CCCC(=O)Nc1nc2ccc(OCC)cc2s1 | inconclusive [activator, partial curve] | –
COc1ccc(-c2cc(C(=O)Nc3c(Cl)cccc3Cl)no2)cc1OC | – | inactive: -10.7%
Cc1cccc(N2CCN(C(=O)c3ccccc3OCc3c(C)noc3C)CC2)c1C | inconclusive [activator, partial curve, poor fit] | –
C[C@@H](NC(=O)c1[nH]cnc1C(=O)Nc1ccccc1)c1ccccc1 | – | inactive: 4.12%
COc1ccc2c(c1)c(=O)c(S(=O)(=O)c1ccc(C)c(C)c1)cn2CC(=O)Nc1ccccc1 | – | inactive: -7.79%
N=c1nc(N)nc2n1NC(c1ccc(F)cc1)=CS2 | – | inactive: -29.2%
CCCNC(=O)C(Cc1cccc(C#N)c1)NC(=O)c1ccc(C#N)cc1 (stereo not drawn) | – | inactive: -3.86%
COC(=O)c1sc(NC(=O)C(C)c2ccccc2)nc1C (stereo not drawn) | inconclusive [activator, partial curve, poor fit] | –
CCc1ccc2oc(-c3ccc(OC)cc3)cc(=Nc3c(C)n(C)n(-c4ccccc4)c3=O)c2c1 | inconclusive [activator, single point] | –
CCOC(=O)c1cnc(-n2nc(C)cc2C)[nH]c1=O | inconclusive [activator, partial curve, poor fit] | –
OC[C@@H]1CN(Cc2ccc(-c3ccccc3)cc2)C[C@H](n2cnc3c(NCc4ccco4)ncnc32)O1 | inconclusive [activator, single point] | –
Fc1ccc(CN2CCC(Cc3ccccc3)CC2)cc1F | inconclusive [activator, partial curve, poor fit] | –
O=C(Oc1cccc2c(O)cccc12)c1ccccc1Cl | inconclusive [activator, single point] | –
CCOc1ccc2c(c1)c1nnc(SCC(=O)N3CCCCC3C)nc1n2C (stereo not drawn) | – | inactive: -5.19%
Cn1cnc(S(=O)(=O)N2CCC(C(=O)NCc3ccc(Cl)cc3)CC2)c1 | – | inactive: -9.36%

Structure (SMILES) | Potency | growth rescue
Cc1ccc(CNC(=O)c2cncc(Br)c2)cc1 | inconclusive [activator, single point] | –
Cc1ccc(CN2CCSc3ccc(C(=O)NCCCN4CCOCC4)cc32)cc1 | inconclusive [activator, partial curve, poor fit] | –
O=C1[C@H]2[C@@H](c3ccc(C(F)(F)F)cc3)N[C@]3(CCCN(Cc4ccc(F)cc4)C3=O)[C@H]2C(=O)N1Cc1ccccc1 | inconclusive [activator, partial curve, poor fit] | –
O=C(Nc1nc2ccccc2s1)NC1CCCCC1 | inconclusive [activator, partial curve, poor fit] | –
CC12CCC(C(=O)N(CSC(=S)N/N=C\c3ccccc3O)C1=O)C2(C)C (stereo not drawn) | inconclusive [activator, full curve] | –
Cc1ccc(NC(=O)C(Cc2ccccc2)N2C(=O)C3C4CCC(C4)C3C2=O)cc1Cl (stereo not drawn) | inconclusive [activator, single point] | –
O=C(N/N=C/C(Br)=C/c1ccccc1)NC1CCCCC1 | – | inactive: 10.1%
N#C/C(=C\c1ccccc1[N+](=O)[O-])C(=O)NCc1ccccc1 | inconclusive [activator, partial curve, poor fit] | –
O=C1c2cnc3nc(SCc4ccc(Cl)cc4)nn3c2CC2c3ccccc3CCN12 (stereo not drawn) | inconclusive [activator, partial curve, poor fit] | –
S=c1[nH]nc(-c2ccc(Cl)cc2)n1/N=C/C=C/c1ccco1 | active: 5.01 µM | –
C=CCNC(=S)Nc1ccc(Cl)cc1F | inconclusive [activator, single point] | –
C=CCNC(=S)N1CCC2CC1c1c(Cl)cccc12 (stereo not drawn) | inconclusive [activator, single point] | –
O=C(CSCCO)Nc1ccc(C23CC4CC(CC(C4)C2)C3)cc1 | inconclusive [activator, partial curve] | –
COc1ccc(CN2C(=O)[C@H]3Cc4c([nH]c5ccccc45)C(C)(C)N3C2=O)cc1 | inconclusive [activator, partial curve, poor fit] | –
COc1ccc(Cl)cc1NC(=O)NCc1noc2ccccc12 | inconclusive [activator, partial curve] | –
COc1ccc([C@H]2/C=C\CN(C(=O)c3ccc(C)cc3)[C@@H](C)C(=O)N2Cc2ccc(F)cc2)cc1 | – | inactive: -11.5%
CC1=CCC2C(=O)N(c3cccc(C(=O)Nc4ccc(Cl)cc4)c3)C(=O)C2C1 (stereo not drawn) | active: 14.1 µM | –
Cc1nc(C)c(C(=O)Nc2ncc([N+](=O)[O-])s2)o1 | – | inactive: -41.6%
S=C(Nc1ccccn1)NC1CCCC1 | inconclusive [activator, partial curve, poor fit] | –
CSc1cccc(NC(=O)C2CCCN(S(=O)(=O)c3ccc4c(c3)CCCN4C(C)=O)C2)c1 (stereo not drawn) | – | inactive: 8.73%
COc1ccc(Cl)cc1NC(=S)Nc1ccccc1F | inconclusive [activator, single point] | –
